In PubChem BioAssay (NCATS):
This list was built around the results that the source calls inconclusive (neither active nor inactive); the mix of calls is not that of the screen. Calls follow the shape of the dose curve; as a rule, active = well fitted curve in either direction with a large enough effect (not every such curve was filed as active); inconclusive = small, poorly fitted or top-dose-only effect, or another doubt; inactive = flat fitted curve, though single readings scatter.

Assay: NFAT Signaling Pathway (AID 444);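 also: carbachol stimulus at about its EC50 of 1 µM final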
Details: Jurkat NFAT-bla M1, carbachol, beta-lactamase ratio, 5 h; at 17.2 µM (top of the series) unless noted
In short: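 Jurkat cells carrying an NFAT-driven β-lactamase reporter and co-transfected muscarinic M1 receptor were treated with compound plus carbachol (1 uM final, an EC50 level) for 5 h at 37 °C. CCF4 loading followed for 1 h at RT; 460/530 nm ratio gave %activity.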
% is scaled to controls: 0 for no effect and ±100 for the full control effect.

Activity change, negative = inhibition, inconclusive:
CCCCc1ccc(NC(=O)CSC2=C(C#N)C(c3ccco3)C3=C(CCCC3=O)N2)cc1 (stereo unspecified) -50.2% [inhibitor]
CSc1nc2[nH]c3c(c2c2ncnn12)CCCC3 -57.9% [inhibitor]
CCOC(=O)/C=c1\s/c(=C(\C#N)C(=O)OCC)n(-c2ccccc2)c1=O 170% [activator]
Cc1noc(C)c1C(=O)N1CCC2(CCCN(C(c3ccccc3)c3ccccc3)C2)CC1 -44.3% [inhibitor] [at 7.69 µM]
CNC(=O)Nc1cccc(NC(=O)NC)n1 -37.8% [inhibitor]
CCOC(=O)c1[nH]c2ccc(Br)cc2c1NC(=O)CCN1CCC(C(=O)OCC)CC1 -68.9% [inhibitor]
Cc1coc2c(O)cc3c(c12)OC1(N2CCCCC2)C(=O)NCCCC31 (stereo unspecified) -56.1% [inhibitor]
C#CCN1C(C)=C(C(=O)OC)[C@@H](c2cccc([N+](=O)[O-])c2)C(C(=O)OCC)=C1C -69.5% [inhibitor] [at 38 µM]
Fc1ccccc1-c1nc(N2CCCCC2)c2ccccc2n1 -82.3% [inhibitor]
Cc1c(CCC#N)c(N2CCN(C3CCCCC3)CC2)n2c(nc3ccccc32)c1C#N -91% [inhibitor]
CCOC(=O)CC(=O)CSc1nc(N)c(C#N)c(-c2ccc(Cl)cc2)c1C#N -36.2% [inhibitor]
